# The campaign covered roughly 410,000 compounds. About 6,400 (1.6%) were called active. The shares of active, inactive and inconclusive entries below differ from those in the screen. The call rests on the fitted dose curve; in most records, active means well fitted inhibition curve with a large enough effect; inconclusive means small, poorly fitted or top-dose-only effect; inactive means no such curve, though single readings can be large or run the other way. No potency is given beside an inconclusive call; the fits are too rough.
# Biological target: Glucagon-like peptide 1 receptor (Homo sapiens) (UniProt P43220)
# UniProt P43220, sequence (P43220 whole entry, looked up): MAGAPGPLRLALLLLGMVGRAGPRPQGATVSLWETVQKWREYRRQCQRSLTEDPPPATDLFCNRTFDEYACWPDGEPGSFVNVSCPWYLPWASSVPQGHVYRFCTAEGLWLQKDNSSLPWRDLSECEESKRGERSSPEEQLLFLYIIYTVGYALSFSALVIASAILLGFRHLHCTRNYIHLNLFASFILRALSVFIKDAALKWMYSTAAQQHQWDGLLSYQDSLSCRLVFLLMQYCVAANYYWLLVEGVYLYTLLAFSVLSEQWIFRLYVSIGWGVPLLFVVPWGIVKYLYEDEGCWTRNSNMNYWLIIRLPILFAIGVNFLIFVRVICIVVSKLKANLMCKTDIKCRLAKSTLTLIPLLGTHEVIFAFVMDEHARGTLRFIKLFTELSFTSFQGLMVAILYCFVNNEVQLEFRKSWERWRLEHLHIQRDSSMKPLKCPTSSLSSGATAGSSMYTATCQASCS
# Assay: qHTS of GLP-1 Receptor Inverse Agonists (Inhibition Mode); further: nearly all actives have a fitted effect of over 55% in size
# Conditions: HEK293 GLP-1R CRE-luciferase, luminescence, 24 h, GLP-1R form is constitutively active; series mostly up to 38.3 µM
# In short: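 Assay principle: reduced luminescence from a cAMP-responsive reporter in HEK293 cells co-expressing a constitutively active GLP-1R. Conditions: 24 hr compound incubation, 37 deg C, 5% CO2.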
# Potency means the concentration at half of the fitted maximal effect; tags describe the fitted curve by direction and shape.
row,SMILES,Potency
1,Cc1nc2c(-c3ccccc3)c(C)nn2c(C)c1CCC(=O)NCCc1ccccc1,"inconclusive [inhibitor, partial curve, poor fit]"
2,CC(Oc1ccc(-c2ccccc2)c(F)c1)c1ccn(S(=O)(=O)c2ccc(Cl)cc2)n1 (centres undefined),"inconclusive [inhibitor, partial curve, poor fit]"
3,Cc1ccc(C(=O)CC(=O)c2ccccc2)cc1,inactive
4,O=C(C1=C[C@H](c2csc3ccccc23)C[C@H](OCCCCO)O1)N1CCN(Cc2ccccc2)CC1,"inconclusive [inhibitor, single point]"
5,Cc1cccc(C)c1NC(=O)COC(=O)CCC(=O)c1cccs1,inactive
6,Cn1c(C(=O)Nc2ccc3c(c2)OCO3)cc2sccc21,"inconclusive [inhibitor, single point]"
7,C/C(=N\NC(=S)NC1CCCCC1)c1cccc(Br)c1,"inconclusive [inhibitor, partial curve, poor fit]"
8,O=C(COc1cccc(Cl)c1)N1CCC(c2nc3ccccc3o2)CC1,"inconclusive [inhibitor, single point]"
9,Cn1cc(CN2CCc3c([nH]c4ccccc34)C2C(C)(C)C)cn1 (centres undefined),"inconclusive [inhibitor, single point]"
10,O=C(NCc1ccccc1Cl)C1CCCN(C(=O)c2cnn(-c3ccc(F)cc3)c2-n2cccc2)C1 (centres undefined),"inconclusive [inhibitor, partial curve, poor fit]"
11,c1ccc(COC(CN2CCCCCC2)CN2CCCCCC2)cc1,"inconclusive [inhibitor, partial curve, poor fit]"
12,Cc1ccc(S(=O)(=O)N2CCCC2C(=O)Nc2ccc(Br)cc2)cc1 (centres undefined),"inconclusive [inhibitor, single point]"
13,COc1ccccc1NC(=O)COc1ccc(Br)cc1CNC1CCCC1,"inconclusive [inhibitor, partial curve, poor fit]"
14,COc1ccc(OCC(O)CN(CCO)CC(O)Cn2ccc3ccccc32)cc1 (centres undefined),"inconclusive [inhibitor, partial curve, poor fit]"
15,CCCCNC(=S)NNC(=O)c1c(Cl)c(C)nn1C,"inconclusive [inhibitor, single point]"
16,COc1ccc(C(=O)OCC(=O)Nc2ccccc2)cc1[N+](=O)[O-],inactive
17,Cc1ccc(S(=O)(=O)N(C)C)cc1NC(=S)NC12CC3CC(CC(C3)C1)C2,"inconclusive [inhibitor, single point]"
18,COc1ccc(C(CNC(=O)COc2ccc(Cl)c(C)c2)N2CCCCC2)cc1 (centres undefined),"inconclusive [inhibitor, partial curve, poor fit]"
19,O=C(C1CCCN(S(=O)(=O)c2cccc3nonc23)C1)N1CCN(c2cccc(C(F)(F)F)c2)CC1 (centres undefined),inactive
20,CCOC(=O)N1CCN(CCC(=O)c2ccc(Br)cc2)CC1,inactive

row,SMILES,Potency
1,O=c1ccc2c(-c3ccccc3S(=O)(=O)O)c3ccc(O)c(O)c3oc-2c1O,"inconclusive [inhibitor, single point]"
2,Cc1cccc(N(CC(=O)NC2CC2)S(=O)(=O)c2ccc(Cl)cc2)c1,"inconclusive [inhibitor, single point]"
3,O=C(/C=C/c1ccc2c(c1)OCCO2)c1ccc(O)cc1,"inconclusive [inhibitor, partial curve, poor fit]"
4,O=C(NCC(=O)N1CCN(Cc2ccccc2)CC1)c1cc(Cl)cc([N+](=O)[O-])c1,"inconclusive [inhibitor, single point]"
5,COc1ccc(NC(=O)COC(=O)c2cnccn2)cc1Cl,inactive
6,CCOC(=O)c1c(C)oc2nc(C)nc(N(C)Cc3ccccc3)c12,"inconclusive [inhibitor, single point]"
7,Cc1onc(-c2c(Cl)cccc2Cl)c1C(=O)NNC(=O)c1c(-c2c(Cl)cccc2Cl)noc1C,"inconclusive [inhibitor, partial curve]"
8,O=C(Nc1ccccc1Cl)NC1CCCCCCC1,"inconclusive [inhibitor, partial curve]"
9,O=C(Nc1ccccc1)Nc1cccc2ccccc12,"inconclusive [inhibitor, full curve, poor fit]"
10,CN(CC(=O)Nc1ccc(Cl)c(C(F)(F)F)c1)C(=O)c1cccs1,"inconclusive [inhibitor, partial curve, poor fit]"
11,N#Cc1c(C(F)(F)F)cc(-c2ccco2)nc1SCc1ccccn1,"inconclusive [inhibitor, single point]"
12,Cc1ccc(/C=N/NC(=O)c2nnn(-c3nonc3N)c2-c2ccc3c(c2)OCO3)s1,"inconclusive [inhibitor, full curve]"
13,Cc1cccc(-c2ncc(CN3CCC(CO)(CCCc4ccccc4)CC3)cn2)c1,"inconclusive [inhibitor, single point]"
14,CCCOc1ccc(C(=O)N2CCN(c3ccc(N)cc3Cl)CC2)cc1,"inconclusive [inhibitor, partial curve, poor fit]"
15,Cc1ccc(S(=O)(=O)N2CCCc3cc(NS(=O)(=O)c4ccccc4)ccc32)cc1,"inconclusive [inhibitor, partial curve, poor fit]"
16,CC(C)Cn1c([N+](=O)[O-])nc2c1c(=O)[nH]c(=O)n2C,"inconclusive [inhibitor, single point]"
17,CCN(Cc1ccccc1)S(=O)(=O)c1ccc(C(=O)N(CCCN(C)C)c2nc3cc4c(cc3s2)OCO4)cc1,"inconclusive [inhibitor, partial curve, poor fit]"
18,CCOC(=O)c1ccc(N2CCN(c3ccc(F)cc3)CC2)c(NC(=O)Nc2ccc(CC)cc2)c1,inactive
19,COc1ccccc1C(=O)Nc1ccnn1C1CCN(CCCc2ccccc2)CC1,"inconclusive [inhibitor, partial curve, poor fit]"
